Screen size: about 46,000 compounds; about 60 (0.1%) were called active. Another 3% or so got no clear call; they are omitted. The call rests on the fitted dose curve; in most records, active means well fitted inhibition curve with a large enough effect; inconclusive means small, poorly fitted or top-dose-only effect; inactive means no such curve, though single readings can be large or run the other way. Some of the results follow.

This experiment is described as follows: Primary qHTS assay for Inhibitors of ovarian cancer metastasis using an organotypic tumor microenvironment (TME) model. Further: nearly all actives have a fitted effect of over 65% in size.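 On activity change, negative = inhibition: plate controls were DMSO wells for no effect and tomatine positive control wells for full effect.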 The conditions noted are these: SKOV3ip1-GFP adhesion/invasion on 3D omental model, fluorescence; series mostly up to 45.8 µM; activity change, negative = inhibition: at the top concentration. The method, boiled down:
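Adhesion/invasion was scored as fixed GFP-labeled SKOV3ip1 cell counts (488/509 nm), normalized to DMSO and tomatine controls. Cancer cells in serum-free medium, with four compound doses (0.36-46 umol/L), sat 2 hr at RT then 16 hr at 37 C on a 48 hr fibroblast/mesothelial/ECM culture.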
Background: In qHTS, concentration-response curves come from the screen itself.
As to `Cc1ccccc1C(C(=O)NC1CCCCC1)N(C(=O)Cn1ccnc1C)c1cccc(F)c1` (stereo not given), the “activity change, negative = inhibition” value was inactive: 3.57%.

On to `COCCCNC(=O)c1sc2ncccc2c1-n1cccc1`, for which the “activity change, negative = inhibition” value is inactive: -13.5%. `CCCCN(C(=O)c1cccc(S(=O)(=O)N2CCCCC2)c1)C1CCS(=O)(=O)C1` (stereo not given): the outcome was inactive.

On to `O[C@@H](CNC[C@H](O)[C@H]1CCc2cc(F)ccc2O1)[C@@H]1CCc2cc(F)ccc2O1`, for which the “activity change, negative = inhibition” value was inactive: -6.09%.

As for `Cc1cc(NC(c2nnc(-c3ccccc3)o2)c2ccccc2F)ccc1Br` (stereo not given), the outcome was inactive.

Take `CCc1cccc2sc(N3CCN(C(=O)C4CC4)CC3)nc12`: the “activity change, negative = inhibition” value was inactive: -4.76%. Turning to `Cc1ccc2cccc(NC(=O)c3cccc4ccccc34)c2n1`, the “activity change, negative = inhibition” value was inactive: -4.99%. For the compound `CCN(CC)c1ccc(-c2nc(-c3ccncc3)no2)cc1[N+](=O)[O-]`, the result was inactive. As to `COc1ccc(NCc2ccccc2-c2nnc(-c3ccccc3)o2)cc1Cl`, the “activity change, negative = inhibition” value is inactive: -12.5%.

For `CCCCNC(=O)CSc1nc2cc3c(cc2c(=O)n1CCCC(=O)NCc1ccc2c(c1)OCO2)OCO3`, the compound was called inactive. In the case of `Cc1cc(C)cc(C(=O)N2CC(=O)Nc3ccc(C)cc3C2c2ccccc2)c1` (stereo not given), the “activity change, negative = inhibition” value was inactive: -0.347%. For the compound `CCOc1ccccc1C(=O)N(Cc1ccc(N(C)C)cc1)CC1CCCO1` (stereo not given), the result was inactive. With `CC(C)(C)OC(=O)N1CCC(c2c(C(=O)N3CCc4ccccc4C3)cnn2-c2ccc(Cl)cc2)CC1`, the “activity change, negative = inhibition” value is inactive: -8.07%. The same measure, in the same setting: the value for `CCS(=O)(=O)Nc1cc(-c2cn3ccc(C)cc3n2)ccc1C` was inactive: 1.67%. Same read-out and setting: with `CCN1C(=O)c2cccc3c(S(=O)(=O)Nc4ccc(O)c(C(=O)O)c4)ccc1c23` the figure was inactive: 15.5%; with `O=C(COc1ccc(Br)cc1Br)Nc1ccc(S(=O)(=O)Nc2ncccn2)cc1`, inactive: 8.01%; with `Cc1oc(-c2cccc(Cl)c2)nc1CN1CCC(C(=O)NC(C)C)CC1`, inactive: -5.12%.

As to `Cc1cc(C)c(S(=O)(=O)Nc2ccc3oc(C)c(C(=O)OC(C)C)c3c2)cc1C`, the “activity change, negative = inhibition” value is inactive: -8.32%. The same measure, in the same setting: the value for `Cc1ccc(CNC(=O)CCNS(=O)(=O)c2ccc3c(c2)oc(=O)n3C)cc1` was inactive: -0.327%.

Turning to `Cc1ccc(Cl)cc1NC(=O)Cn1c(=O)cc(C)c2c(C)nn(C)c21`, the “activity change, negative = inhibition” value was inactive: 15.3%. Take `CCOc1ccc(NC(=O)Cn2c(=O)n(CCc3ccccc3)c(=O)c3c4c(sc32)CCCC4)cc1`: the “activity change, negative = inhibition” value was inactive: 20.6%.

As to `COc1cccc(Nc2nnc(-c3cc4ccc(O)cc4oc3=O)s2)c1`, the result was inactive. As to `Cc1ccc(NC(=O)CC2Oc3ccc(C)cc3NC2=O)c(C)c1` (stereo not given), the “activity change, negative = inhibition” value is inactive: -10.6%. Still for that read-out and setting: with `Cc1ccc(-n2nc3cc(C)c(NC(=O)c4ccc(-c5ccccc5)o4)cc3n2)cc1` the figure was inactive: -0.0812%. On the same count and under the same terms, the value for `O=C(CCn1c(=O)c2sccc2n(Cc2ccc(F)cc2)c1=O)NCc1ccc2c(c1)OCO2` was inactive: -1.61%.

Consider `COc1cccc(C2CC(=O)Nc3c2c(=O)n(C)c2nc4ccccc4n32)c1OC` (stereo not given), for which the compound was called inactive. Still for that read-out and setting: with `COc1cccc2sc(NC(=O)c3ccc4c(c3)OCCO4)nc12` the entry was “inactive”. Still for that read-out and setting: the value for `CCc1nc2ccc(C(=O)N3CCN(c4ccccc4F)CC3)cc2nc1CC` was “inactive”; that for `Cc1ccc(Cl)cc1N1CCN(C(=O)Cn2cnc3onc(-c4ccc(F)cc4)c3c2=O)CC1` was “inactive”. As for `O=C(Cn1ncc2c3ccccc3n(Cc3ccccc3)c2c1=O)NCc1cccs1`, the “activity change, negative = inhibition” value is inactive: -7.26%. Still for that read-out and setting: the value for `CCOC(=O)C1=C(CN2CCN(c3ccc(Cl)cc3)CC2)NC(=O)NC1c1ccc(OC)cc1` (stereo not given) was inactive: -22.6%. The same measure, in the same setting: the value for `Cc1ccc(CSc2c(C)cnc3c2c(=O)n(C)c(=O)n3C)cc1` was inactive: -11.4%. The same measure, in the same setting: the value for `CC(=O)c1ccc(NC(=O)Cn2nc(C(F)(F)F)c3c2CCC3)cc1` was inactive: 0.153%. With `Cc1ccc2nc(-c3ccc(NC(=O)Cc4ccccc4)cc3)sc2c1`, the compound was called inactive.

As for `CCN(CC)CCNC(=O)CCn1c(=O)c2cccn2c2cccnc21`, the “activity change, negative = inhibition” value is inactive: -7.95%. On the same count and under the same terms, with `CCCCNC(=O)CCC1N=C2c3ccccc3N=C(SCC(=O)NCCc3ccc(OC)c(OC)c3)N2C1=O` (stereo not given) the figure was inactive: -7.02%; with `CC1=C(C(=O)Nc2ccc(C)cc2C)C(c2ccccc2)n2nc(SCC(=O)c3ccc(C)cc3)nc2N1` (stereo not given), inactive: -2.12%.

As for `Cc1cc(Nc2ccc(Br)cc2)n2nc(-c3ccccc3C)nc2n1`, the compound was classed as inactive. `CN1c2ccc(Cl)cc2-c2nc(SCC(=O)NCc3ccc(F)cc3)ncc2S1(=O)=O`: the “activity change, negative = inhibition” value was inactive: 3.29%. For `COc1ccc(OC)c(-c2cc(C(=O)Nc3ccc(C)c(C)c3)no2)c1`, the compound was classed as inactive. For `O=C(CSc1nc2ccsc2c(=O)n1Cc1ccc(F)cc1)NCc1ccc(Cl)cc1`, the “activity change, negative = inhibition” value was inactive: 9.92%. Turning to `COc1ccc(NC(=O)Cn2c(=O)oc3ccccc32)cc1`, the “activity change, negative = inhibition” value was inactive: 23%.

For `Oc1ccc(-c2nc(-c3ccc(F)cc3)c(-c3ccncc3)[nH]2)cc1`, the “activity change, negative = inhibition” value is inactive: 5.82%. As to `CCc1ccccc1NC(=O)CCNS(=O)(=O)c1ccc2c(c1)CCCC(=O)N2`, the “activity change, negative = inhibition” value was inactive: -9.46%. The same measure, in the same setting: the value for `Cc1nn(C)c2c1c(C(F)(F)F)cc(=O)n2CC(=O)NCc1ccc(OC(C)C)cc1` was inactive: -8.22%; that for `CCC(C)c1ccc(OCC(=O)Nc2cccc3ccc(C)nc23)cc1` (stereo not given) was inactive: 3.88%; that for `C[C@H](NC(=O)C(C#N)=Cc1cccc(Br)n1)c1ccccc1` was inactive: -24%. In the case of `CCN1CCN(c2ncc3c(n2)CCN(Cc2cc(Br)cs2)C3)CC1`, the “activity change, negative = inhibition” value is inactive: 7.01%. For `Cc1c(O)nc(SCC(=O)Nc2ccc(Cl)cc2Cl)n(-c2ccc(F)cc2)c1=O`, the “activity change, negative = inhibition” value is inactive: 0.801%. With `O=C(CNC(=O)c1ccc(Cl)cc1)OCc1cc(=O)n2nc(C3CC3)sc2n1`, the outcome was inactive.

Values taken from PubChem BioAssay AID1963576 (National Center for Advancing Translational Sciences (NCATS), 2024).
